The antibiotic and cytotoxicity screens of Wong et al. (2023)
Some of the results follow.

Experiments:
[1] = system: HSkMC (human skeletal muscle cells); test: cytotoxicity call (relative viability < 0.9); details: 10 µM
[2] = system: HepG2; test: cytotoxicity call (relative viability < 0.9); details: 10 µM
[3] = system: S. aureus RN4220; test: growth inhibition call (relative growth <= 0.2); details: 50 µM

SMILES	cytotoxicity call [1]	cytotoxicity call [2]	growth inhibition call [3]
C[C@H]1CN([C@@H](C)CO)C(=O)Cc2cc(NC(=O)c3ccncc3)ccc2O[C@@H]1CN(C)Cc1ccc(C(=O)O)cc1	inactive	inactive	inactive
CC1(C)[C@H]2CC[C@@]1(C(=O)O)C(=O)C2=O	inactive	inactive	inactive
COc1ccc(NC(=O)Nc2ccc3c(c2)C(=O)N([C@@H](C)CO)C[C@H](C)[C@@H](CN(C)Cc2ccc(-c4ccccc4)cc2)O3)cc1	active	inactive	inactive
C[C@H](CO)N1C[C@H](C)[C@H](CN(C)Cc2ccc3c(c2)OCO3)Oc2ccc(NC(=O)Cn3cnnn3)cc2C1=O	inactive	inactive	inactive
CC(C)NC(=O)N(C)C[C@H]1Oc2ccc(NC(=O)CCC(F)(F)F)cc2C(=O)N([C@H](C)CO)C[C@@H]1C	inactive	inactive	inactive
O=C(C[C@@H]1CC[C@H]2[C@@H](COC[C@@H](O)CN2S(=O)(=O)c2cccc(Cl)c2)O1)NC1Cc2ccccc2C1	inactive	inactive	inactive
COCC#Cc1cnc2c(c1)C(=O)N([C@@H](C)CO)C[C@H](C)[C@H](CN(C)C(=O)CN1CCOCC1)O2	inactive	inactive	inactive
Cc1sc(Nc2ccccc2)nc1-c1ccc(Cl)cc1	inactive	active	inactive
Cl.Cl.Cl.NCCCCNCCCN	inactive	inactive	inactive
C[C@@H]1CCCCO[C@H](CN(C)Cc2ccccc2)[C@@H](C)CN([C@H](C)CO)C(=O)c2cc(NC(=O)Nc3ccc(F)cc3)ccc2O1	inactive	inactive	inactive
C[C@@H]1CCCCO[C@@H](CN(C)Cc2ccncc2)[C@H](C)CN([C@H](C)CO)C(=O)c2cc(NC(=O)C3CCCCC3)ccc2O1	inactive	inactive	inactive
C[C@H]1CN([C@@H](C)CO)C(=O)Cc2cc(NC(=O)c3ccncc3)ccc2O[C@@H]1CN(C)Cc1ccc2c(c1)OCO2	inactive	inactive	inactive
C[C@@H]1CN([C@@H](C)CO)S(=O)(=O)c2ccc(C#CCN(C)C)cc2O[C@@H]1CN(C)Cc1ccccn1	inactive	inactive	inactive
COc1ccc(NC(=O)N(C)C[C@H]2OCCCC[C@@H](C)Oc3ccc(NS(=O)(=O)c4ccc(F)cc4)cc3C(=O)N([C@H](C)CO)C[C@@H]2C)cc1	inactive	inactive	inactive
C[C@@H]1CCCCO[C@@H](CN(C)C(=O)C2CCCCC2)[C@@H](C)CN([C@@H](C)CO)C(=O)c2cc(NS(=O)(=O)c3ccccc3)ccc2O1	inactive	inactive	inactive
C#CCCC(=O)NO	inactive	inactive	inactive
C[C@@H]1CN([C@H](C)CO)C(=O)c2cccc(NC(=O)Nc3ccc(F)cc3)c2O[C@@H]1CN(C)Cc1ccc(C(F)(F)F)cc1	inactive	inactive	inactive
C[C@@H]1CN([C@@H](C)CO)C(=O)c2cc(NC(=O)C3CCCCC3)ccc2O[C@@H](C)CCCCO[C@@H]1CN(C)Cc1ccc2c(c1)OCO2	inactive	inactive	inactive
C[C@H]1CN([C@@H](C)CO)C(=O)c2cc(NS(=O)(=O)c3ccc(Cl)cc3)ccc2O[C@H]1CN(C)S(C)(=O)=O	inactive	inactive	inactive
C=CCNC1=C2C[C@@H](C)C[C@H](OC)[C@H](O)[C@@H](C)/C=C(\C)[C@H](OC(N)=O)[C@@H](OC)/C=C\C=C(/C)C(=O)NC(=CC1=O)C2=O	active	active	inactive
C[C@@H]1CN([C@H](C)CO)C(=O)c2cccc(N(C)C)c2O[C@H]1CN(C)S(C)(=O)=O	inactive	inactive	inactive

SMILES	cytotoxicity call [1]	cytotoxicity call [2]	growth inhibition call [3]
C[C@H]1CCCCO[C@H](CN(C)C(=O)Nc2cccc3ccccc23)[C@@H](C)CN([C@@H](C)CO)C(=O)c2cc(NC(=O)c3ccccc3)ccc2O1	inactive	inactive	inactive
COc1cccc(CNC(=O)c2cc3c(c(-c4cccc(-c5ccncc5)c4)n2)[C@H](CCO)N([S@@](=O)C(C)(C)C)C3)c1	inactive	inactive	inactive
O=C(N1CCCC1)N1CCNCC1	inactive	inactive	inactive
COCC(=O)Nc1ccc2c(c1)C(=O)N(C)C[C@@H](OC)[C@@H](C)CN(Cc1ccccc1F)[C@@H](C)CO2	inactive	inactive	inactive
CC(C)NC(=O)Nc1ccc2c(c1)CC(=O)N([C@H](C)CO)C[C@@H](C)[C@H](CN(C)Cc1ccc3c(c1)OCO3)O2	inactive	inactive	inactive
CCOCc1c[nH]c(=O)[nH]c1=O	inactive	inactive	inactive
C[C@@H]1CN([C@H](C)CO)C(=O)Cc2cc(NS(C)(=O)=O)ccc2O[C@@H]1CN(C)S(=O)(=O)c1cn(C)cn1	inactive	inactive	inactive
C[C@H]1CN([C@@H](C)CO)C(=O)Cc2cc(NS(=O)(=O)c3cn(C)cn3)ccc2O[C@@H]1CN(C)Cc1ccc(C(=O)O)cc1	inactive	inactive	inactive
C[C@@H]1CN([C@H](C)CO)C(=O)Cc2cc(NC(=O)CCN3CCOCC3)ccc2O[C@H]1CN(C)S(=O)(=O)c1ccccc1	inactive	inactive	inactive
CN(CC(=O)O)S(=O)(=O)c1ccc(F)cc1	inactive	inactive	inactive
COc1ccc(S(=O)(=O)Nc2ccc3c(c2)C(=O)N([C@@H](C)CO)C[C@H](C)[C@H](CN(C)CC2CCCCC2)OCCCC[C@@H](C)O3)cc1	inactive	inactive	inactive
CC(=O)N1[C@H](CO)[C@H](c2ccccc2)[C@H]1CNC(=O)CN1CCOCC1	inactive	inactive	inactive
CCCN(C)C[C@@H]1Oc2cc(C#Cc3cccc(OC)c3)ccc2S(=O)(=O)N([C@H](C)CO)C[C@@H]1C	inactive	inactive	inactive
C[C@H]1CN([C@@H](C)CO)C(=O)c2cc(NC(=O)C3CC3)ccc2O[C@H]1CN(C)Cc1ccc(C(=O)O)cc1	inactive	inactive	inactive
O=C(C[C@H]1C=C[C@H](NS(=O)(=O)c2ccc(F)cc2)[C@H](CO)O1)N1CCC(Cc2ccccc2)CC1	inactive	inactive	inactive
CC(=O)OC1CCC2(C)C(=CCC3C2CCC2(C)C(C(C)CCCC(C)C)CCC32)C1 (stereo unspecified)	inactive	inactive	inactive
C[C@H](CO)N1C[C@H](C)[C@@H](CN(C)C(=O)c2ccccc2)OCCCC[C@H](C)Oc2ccc(NC(=O)NC3CCCCC3)cc2C1=O	inactive	inactive	inactive
COc1ccc(NC(=O)N(C)C[C@H]2Oc3c(NC(=O)c4ccc(-c5nccs5)cc4)cccc3C(=O)N([C@H](C)CO)C[C@@H]2C)cc1	inactive	inactive	inactive
O=C(O)c1ccccc1OP(=O)(O)O	inactive	inactive	inactive
Cc1cn[nH]c1.Cl	inactive	inactive	inactive
C=CCOC(=O)[C@H]1[C@@H]2C(=O)O[C@@H](c3ccccc3)[C@@H](c3ccccc3)N2[C@@H](c2ccc(OCCOC(=O)NCCCCCC(=O)NO)cc2)[C@@]12C(=O)Nc1ccc(I)cc12	inactive	inactive	inactive
